Reference: article PMC4571095
No constants are given. Whether binding was seen depends on the method and setting. In cells and extracts the contact can be indirect. Some results given as binding are weak or reduced against the parent protein; the word gives no strength. For part of these data: Where a sequence is shown, tags or fusion partners need not be part of it.

Protein sequences, listed by entry. Tags and fused reporters are not part of them.
UniProt P60880: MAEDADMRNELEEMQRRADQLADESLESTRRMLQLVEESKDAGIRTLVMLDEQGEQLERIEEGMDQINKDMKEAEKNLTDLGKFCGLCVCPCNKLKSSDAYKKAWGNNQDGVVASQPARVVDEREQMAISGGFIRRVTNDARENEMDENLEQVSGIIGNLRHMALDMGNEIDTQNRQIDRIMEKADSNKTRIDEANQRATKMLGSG
UniProt O60645: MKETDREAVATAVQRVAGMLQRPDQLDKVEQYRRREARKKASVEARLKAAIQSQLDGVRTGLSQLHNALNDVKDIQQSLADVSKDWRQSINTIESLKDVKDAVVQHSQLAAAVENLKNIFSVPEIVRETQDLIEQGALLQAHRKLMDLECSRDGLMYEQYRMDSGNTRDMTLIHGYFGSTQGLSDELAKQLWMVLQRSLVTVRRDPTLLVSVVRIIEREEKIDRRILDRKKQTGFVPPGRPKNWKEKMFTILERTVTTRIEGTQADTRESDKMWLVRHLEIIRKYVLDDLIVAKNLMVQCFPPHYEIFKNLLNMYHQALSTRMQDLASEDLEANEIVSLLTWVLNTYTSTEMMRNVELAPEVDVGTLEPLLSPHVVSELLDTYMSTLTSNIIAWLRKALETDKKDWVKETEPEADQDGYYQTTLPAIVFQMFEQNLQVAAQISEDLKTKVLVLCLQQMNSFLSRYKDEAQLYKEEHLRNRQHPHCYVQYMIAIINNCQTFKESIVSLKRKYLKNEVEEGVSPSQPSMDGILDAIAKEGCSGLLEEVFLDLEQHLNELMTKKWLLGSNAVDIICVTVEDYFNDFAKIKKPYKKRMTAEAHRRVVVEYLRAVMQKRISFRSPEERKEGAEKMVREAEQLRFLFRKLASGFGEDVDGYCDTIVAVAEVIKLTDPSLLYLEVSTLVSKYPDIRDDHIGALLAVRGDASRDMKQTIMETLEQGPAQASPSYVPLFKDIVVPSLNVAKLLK
UniProt Q96KP1: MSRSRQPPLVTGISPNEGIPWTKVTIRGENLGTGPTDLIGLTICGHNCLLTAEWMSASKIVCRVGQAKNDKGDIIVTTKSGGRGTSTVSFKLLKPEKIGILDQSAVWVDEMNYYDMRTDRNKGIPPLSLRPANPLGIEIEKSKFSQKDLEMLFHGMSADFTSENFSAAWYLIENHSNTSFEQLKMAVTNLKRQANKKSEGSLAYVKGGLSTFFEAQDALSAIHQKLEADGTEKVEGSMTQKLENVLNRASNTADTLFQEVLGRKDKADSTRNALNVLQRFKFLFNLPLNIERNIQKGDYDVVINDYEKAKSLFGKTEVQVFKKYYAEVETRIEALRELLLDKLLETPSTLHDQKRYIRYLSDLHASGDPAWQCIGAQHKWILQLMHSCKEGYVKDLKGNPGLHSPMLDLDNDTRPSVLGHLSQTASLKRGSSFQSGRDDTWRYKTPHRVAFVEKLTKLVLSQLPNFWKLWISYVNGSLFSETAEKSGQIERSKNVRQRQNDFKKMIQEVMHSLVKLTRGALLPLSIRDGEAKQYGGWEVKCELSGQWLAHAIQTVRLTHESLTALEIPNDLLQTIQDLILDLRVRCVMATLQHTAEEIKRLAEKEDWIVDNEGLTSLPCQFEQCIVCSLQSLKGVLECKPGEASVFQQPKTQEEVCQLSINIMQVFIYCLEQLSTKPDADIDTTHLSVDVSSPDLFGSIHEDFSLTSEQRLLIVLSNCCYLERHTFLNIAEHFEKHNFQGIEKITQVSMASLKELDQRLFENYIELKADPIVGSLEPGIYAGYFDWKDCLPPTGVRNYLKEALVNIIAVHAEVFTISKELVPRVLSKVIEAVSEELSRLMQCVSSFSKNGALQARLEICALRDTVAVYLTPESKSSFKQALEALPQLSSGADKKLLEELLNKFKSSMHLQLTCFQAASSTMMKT
UniProt O00471: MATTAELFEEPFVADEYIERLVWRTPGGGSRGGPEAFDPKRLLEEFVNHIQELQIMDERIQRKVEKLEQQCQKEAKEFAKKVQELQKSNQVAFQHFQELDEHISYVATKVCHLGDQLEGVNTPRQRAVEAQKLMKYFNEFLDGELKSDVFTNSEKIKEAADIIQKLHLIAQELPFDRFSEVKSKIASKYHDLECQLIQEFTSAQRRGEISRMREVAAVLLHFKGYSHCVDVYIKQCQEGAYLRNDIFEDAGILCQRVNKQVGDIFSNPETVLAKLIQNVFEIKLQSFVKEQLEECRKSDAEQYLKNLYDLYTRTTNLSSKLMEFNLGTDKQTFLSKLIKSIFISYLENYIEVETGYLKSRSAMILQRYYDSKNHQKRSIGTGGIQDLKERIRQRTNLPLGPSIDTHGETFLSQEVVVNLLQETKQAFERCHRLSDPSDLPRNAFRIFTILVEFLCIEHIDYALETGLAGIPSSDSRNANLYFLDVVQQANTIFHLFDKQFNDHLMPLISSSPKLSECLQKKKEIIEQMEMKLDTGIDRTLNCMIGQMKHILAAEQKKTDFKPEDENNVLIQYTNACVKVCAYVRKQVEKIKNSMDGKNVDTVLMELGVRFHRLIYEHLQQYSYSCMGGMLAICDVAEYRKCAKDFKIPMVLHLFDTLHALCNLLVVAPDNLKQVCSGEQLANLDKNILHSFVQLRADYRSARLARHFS
UniProt Q9NV70: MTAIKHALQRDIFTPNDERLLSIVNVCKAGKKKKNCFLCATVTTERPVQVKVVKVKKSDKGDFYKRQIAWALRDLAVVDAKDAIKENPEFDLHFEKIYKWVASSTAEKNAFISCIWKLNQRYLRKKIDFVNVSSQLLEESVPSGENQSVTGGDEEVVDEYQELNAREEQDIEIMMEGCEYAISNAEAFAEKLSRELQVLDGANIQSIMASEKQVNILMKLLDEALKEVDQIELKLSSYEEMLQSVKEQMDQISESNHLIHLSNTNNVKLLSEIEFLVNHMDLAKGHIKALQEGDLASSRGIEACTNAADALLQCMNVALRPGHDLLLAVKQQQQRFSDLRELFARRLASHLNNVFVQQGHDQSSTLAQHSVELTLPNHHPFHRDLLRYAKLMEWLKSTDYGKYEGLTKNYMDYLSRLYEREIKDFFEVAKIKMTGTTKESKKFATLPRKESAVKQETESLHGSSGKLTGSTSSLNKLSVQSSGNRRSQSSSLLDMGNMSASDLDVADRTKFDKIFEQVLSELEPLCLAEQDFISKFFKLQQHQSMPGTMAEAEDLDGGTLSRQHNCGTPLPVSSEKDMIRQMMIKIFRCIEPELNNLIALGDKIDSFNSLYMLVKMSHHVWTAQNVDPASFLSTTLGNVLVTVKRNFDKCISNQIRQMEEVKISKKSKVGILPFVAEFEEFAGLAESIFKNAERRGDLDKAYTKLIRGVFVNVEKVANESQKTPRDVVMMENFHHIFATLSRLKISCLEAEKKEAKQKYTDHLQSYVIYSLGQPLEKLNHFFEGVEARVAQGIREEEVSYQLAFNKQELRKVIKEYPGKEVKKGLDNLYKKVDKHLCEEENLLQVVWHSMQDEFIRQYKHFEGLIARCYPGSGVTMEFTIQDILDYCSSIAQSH
UniProt Q96A65: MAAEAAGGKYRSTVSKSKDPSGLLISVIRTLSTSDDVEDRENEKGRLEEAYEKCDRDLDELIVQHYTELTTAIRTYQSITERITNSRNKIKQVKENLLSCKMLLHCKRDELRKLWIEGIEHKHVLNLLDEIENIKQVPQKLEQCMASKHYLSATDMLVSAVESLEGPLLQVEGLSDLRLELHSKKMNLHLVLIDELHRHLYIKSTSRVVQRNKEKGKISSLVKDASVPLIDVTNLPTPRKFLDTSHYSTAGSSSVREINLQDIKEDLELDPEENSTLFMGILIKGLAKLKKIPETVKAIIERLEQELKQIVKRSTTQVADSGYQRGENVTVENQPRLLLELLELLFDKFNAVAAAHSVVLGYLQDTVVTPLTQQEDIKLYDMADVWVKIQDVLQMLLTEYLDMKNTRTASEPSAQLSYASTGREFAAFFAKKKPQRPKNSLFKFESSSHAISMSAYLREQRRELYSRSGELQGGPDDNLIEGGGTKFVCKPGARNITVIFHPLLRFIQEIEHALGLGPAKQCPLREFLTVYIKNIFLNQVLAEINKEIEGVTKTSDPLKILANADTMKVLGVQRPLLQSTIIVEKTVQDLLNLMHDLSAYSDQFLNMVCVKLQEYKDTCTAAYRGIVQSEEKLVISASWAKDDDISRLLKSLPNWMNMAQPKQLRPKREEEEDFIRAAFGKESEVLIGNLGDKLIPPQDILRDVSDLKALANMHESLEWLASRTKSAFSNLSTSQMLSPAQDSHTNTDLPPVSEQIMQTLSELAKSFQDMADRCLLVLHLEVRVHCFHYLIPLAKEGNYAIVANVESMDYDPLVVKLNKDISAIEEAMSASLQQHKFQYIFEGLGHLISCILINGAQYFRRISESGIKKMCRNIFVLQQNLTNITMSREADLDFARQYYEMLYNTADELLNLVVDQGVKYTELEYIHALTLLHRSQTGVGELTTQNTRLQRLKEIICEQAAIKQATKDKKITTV

Legend:
[1] = molecular target: T1, EGFP-tagged SNAP23 (human) (UniProt O00161); assay: co-IP; HEK293T cells cotransfected with EGFP-SNAP23 or -SNAP25 and a tRFP- or mCherry-tagged exocyst subunit; lysis buffer 50 mM Tris-HCl pH 7.4, 150 mM NaCl, 0.1% NP-40; lysate incubated with GST-anti-GFP Nanobody prebound to glutathione-Sepharose 4B beads, 4°C, 1 h; immunoblot with anti-tRFP, anti-RFP or anti-GFP
T1 sequence: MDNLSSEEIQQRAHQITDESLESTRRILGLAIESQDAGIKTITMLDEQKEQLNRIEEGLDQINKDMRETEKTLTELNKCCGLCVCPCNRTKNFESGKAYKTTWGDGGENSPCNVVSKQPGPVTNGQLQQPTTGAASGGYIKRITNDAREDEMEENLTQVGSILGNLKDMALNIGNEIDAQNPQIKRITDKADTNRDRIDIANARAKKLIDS

[2] = molecular target: EGFP-tagged SNAP25 (human) (UniProt P60880); assay: as above
[3] = molecular target: EGFP-tagged SNAP25 (human) (UniProt P60880); assay: co-IP; HEK293T cells transfected with EGFP-SNAP23 or -SNAP25 alone; lysate precipitated with GST-anti-GFP Nanobody on glutathione-Sepharose 4B beads; immunoblot for endogenous Sec8 or Exo70

| Substance | binding [1] | binding [2] | binding [3] |
| --- | --- | --- | --- |
| tRFP-Sec6 (exocyst subunit Sec6, N-terminally tagRFP-tagged) (from UniProt O60645 1-745) | binds | – | – |
| mCherry-tagged Sec5 (from UniProt Q96KP1 1-924) | no binding | no binding | – |
| mCherry-tagged Sec10 (from UniProt O00471 1-708) | no binding | no binding | – |
| mCherry-tagged Sec3 (from UniProt Q9NV70 1-894) | no binding | no binding | – |
| Sec8-tRFP (exocyst subunit Sec8, C-terminally tagRFP-tagged) (from UniProt Q96A65 1-974) | – | binds | – |
| endogenous Sec8 (from UniProt Q96A65 1-974) | – | – | binds |
